This assay addresses APP695 (UniProt P05067). Nature of the assay: co-IP; competition binding assay: purified Sort-T-myc/His (50 µl) or MS1 peptide (10 µM) pre-incubated with APP695 lysate 1 h at 4°C; read as loss of the sortilin-CFP construct from the anti-APP precipitate; only the binder purified.

These are yes or no findings as the source states them, for the method shown. Binding seen in cells or lysates may run through a third protein. Some binding calls cover weakened binding; strength is not graded here.

On to CGGRFLVHRYSVLQQ [MS1 peptide], for which the binding result was “binds”.

The values above are taken from paper PMC3660575.
